Test results from the supplement of paper PMC7125110.
± gives the standard error. This sample is rich in variants without activity.

B1: glmS ribozyme (parent)
chain: AUAAAAGCGCCAGAACUACAGAAAUGUAGUUGACGAGGAGGAGGUUUAUCGAAUUUUCGGCGGAUGCCUCCAAA

Columns and labels:
Conditions in all cases: with glucosamine-6-phosphate
glucosamine-6-phosphate [1] = variants of: B1; assay: self-cleavage kobs at 640 uM GlcN6P; higher = faster cleavage; RNA array
Outline: (§1)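 Using a hybridised Cy3 probe at 37 °C, barcoded ribozyme variants transcribed in situ by E. coli RNA polymerase on sequenced MiSeq chips were monitored across tiles imaged over ~14 h. The flow contained glucosamine-6-phosphate from 40 μM to 10 mM in HEPES/KCl/Mg(OAc)2 buffer. Signals were normalised to baseline and to non-cleaving reference variants before per-tile medians were fit to one- or two-exponential decays to yield kobs. Weighted Michaelis–Menten fits across concentrations gave kcat and KM.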

glucosamine-6-phosphate [2] = variants of: B1; assay: self-cleavage kobs at 160 uM GlcN6P; higher = faster cleavage; RNA array
Outline: as §1

glucosamine-6-phosphate [3] = variants of: B1; assay: self-cleavage kobs at 2500 uM GlcN6P; higher = faster cleavage; RNA array
Outline: as §1

glucosamine-6-phosphate [4] = variants of: B1; assay: self-cleavage kobs at 10000 uM GlcN6P; higher = faster cleavage; RNA array
Outline: as §1

| Variant | self-cleavage kobs at 640 uM GlcN6P (glucosamine-6-phosphate [1]) [s⁻¹] | self-cleavage kobs at 160 uM GlcN6P (glucosamine-6-phosphate [2]) [s⁻¹] | self-cleavage kobs at 2500 uM GlcN6P (glucosamine-6-phosphate [3]) [s⁻¹] | self-cleavage kobs at 10000 uM GlcN6P (glucosamine-6-phosphate [4]) [s⁻¹] |
| --- | --- | --- | --- | --- |
| AUAAAUGCGCCAGAACUACAGAAAUGUAGUUGACGAGGAGGUGGUUUAUCGAAUUUUCGGCGGAUGCCUCCAAA | < 1e-05 | < 1e-05 | < 1e-05 | – |
| AUAAAAACGGCAGUACUACAGAAAUGUAGUUGACGAGGAGGAGGUUUAUUGAAUGUUCGGCGGAUGCCUCCAAA | < 1e-05 | < 1e-05 | – | – |
| AUAAAAACGCCAGAUCUACAGAAAUGUAGUUGACGAGGAGGAGGUUUAUCGAAUUGUAGGCGGAUGCCUCCAAA | < 1e-05 | – | – | – |
| AUAAAGGCGCCAGAACUACAGAAAUGUAGUGGACGAUGAGGAGGUUUAUCGAAUUUUCGGCGGAUGCCUCCAAA | < 1e-05 | – | < 1e-05 | – |
| AUAAAUGCGGCAGAACUACAGAAAUGUAGUUGACGAGGAGGAGGUUUAUCGAAUUUUCGGCGGAGGCCUCCAAA | < 1e-05 | – | < 1e-05 | – |
| AUAAAAACGCCAGAACUACAGAAAUGUAGUUGACGAGGUGGAGGUUUCUCGAAUUUUCAGCGGAUGCCUCCAAA | < 1e-05 | – | < 1e-05 | – |
| AUAAAAACGCCGGAACUACAGAAAUGUAGUUGACUAGGAGGAGGUUUAUCGAAUUUUCGGCGGAUGCCUCCAAA | < 1e-05 | < 1e-05 | – | – |
| AUAAAUGCGCCAGAACUACAGAAAUGUAGGUGACGAGGAGGAGGUUUAUCGAAUUUUCGGCUGAUGCCUCCAAA | < 1e-05 | < 1e-05 | – | – |
| AUAAAUGCGCCAGAACUACAGAAAUGUACUUGACGAGGAGGAGGUUUAACGAAUUUUCGGCGGAUGCCUCCAAA | < 1e-05 | – | – | – |
| AUAAAUGCGCCAGAACUACAGAAAUGUAGUAGACUAGGAGGUGGUUUAUCGAAUUUUCGGCUGAUGCCUCCAAA | < 1e-05 | – | < 1e-05 | – |
| AUAAAUGCGCCAGUACUACAGAAAUGUAGUUGACGAGGAGGAGGCUUAUCGAAUUUUCGGCGGAUGCCUCCAAA | < 1e-05 | – | – | – |
| AUAAAUGAGCCAGAACUACAGAAAUGUAGUUGACGAGGAGUAGGUUUAUCGAAUUUUCGGCGGAGGCCUCCAAA | < 1e-05 | – | < 1e-05 | – |
| AUAAAAACGCCAGAAUUACAGAAAUGUAGUUGACGAGGAGGAGGUUUAUCGAAUUUUCGGCAGAGGCCUCUAAA | < 1e-05 | – | – | – |
| AUAAAAACGCCAGAACUACAGAAAUGUAGUUGACGAUGAGGAGGGUUAUCGAAUUUUCGGCGGAUGCCUCCAAA | < 1e-05 | – | – | – |
| AUAAAUGCGCCAGAACUACAGAAAUGUAGUUGACGAGGAGGAGGUUUAUCGAAUUUUCGGCGAAUGCCUCCAAA | < 1e-05 | < 1e-05 | – | < 1e-05 |
| AUAAAUGCGCCAGAACUACAGAAAUGUAGUUGACGAGGAGGAGGUUUAUCGAAUUUUCGGGGGAUGACUCCAAA | 0.000106 ± 3.9e-05 | – | 0.00149 ± 0.00065 | – |
| AUAAAUGCGCCAGAACUACAGAAAUGUAGUUGACGCGGAGGAGGUUUAUCCAAUUUUCGGCGGAUGCCUCCAAA | < 1e-05 | – | – | – |
| AUAAAUGCGCCAGAACUACAGAAAUGUAGUUGACGAGGAGGAUGUUUAUCGAAUUUUCGGCGGAUGCCUGCAAA | < 1e-05 | – | – | – |
| AUAAAUGCGCCAGAACUACAGAAAUGUAGUUCACGAGGAGGAGGUUUAUCGAAUUUUCGGCGGAUGGCUCCAAA | < 1e-05 | – | < 1e-05 | – |
| AUAAAAACGCCAGAACUACAGAAAUGUAGUUGACGAGGAGGAGGUUUAUCGAAUUUUCGGCGGAUGACUCCAAA | < 1e-05 | < 1e-05 | – | – |
| AUAAAUGCGCCAGAACUACAGAAAUGUAGUUGACGAGGUGGAUGUUUGUCGAAUUUUCGGCGGAUGCCUCUAAA | < 1e-05 | < 1e-05 | < 1e-05 | – |
